Over roughly 33,000 sequences, “E-score (-0.5 to 0.5)” has its median near -0.016; the highest 2% begin near 0.32. Some of the results follow.
Biological target: T1, Stp1 (UniProt B3LFK1)
T1 sequence: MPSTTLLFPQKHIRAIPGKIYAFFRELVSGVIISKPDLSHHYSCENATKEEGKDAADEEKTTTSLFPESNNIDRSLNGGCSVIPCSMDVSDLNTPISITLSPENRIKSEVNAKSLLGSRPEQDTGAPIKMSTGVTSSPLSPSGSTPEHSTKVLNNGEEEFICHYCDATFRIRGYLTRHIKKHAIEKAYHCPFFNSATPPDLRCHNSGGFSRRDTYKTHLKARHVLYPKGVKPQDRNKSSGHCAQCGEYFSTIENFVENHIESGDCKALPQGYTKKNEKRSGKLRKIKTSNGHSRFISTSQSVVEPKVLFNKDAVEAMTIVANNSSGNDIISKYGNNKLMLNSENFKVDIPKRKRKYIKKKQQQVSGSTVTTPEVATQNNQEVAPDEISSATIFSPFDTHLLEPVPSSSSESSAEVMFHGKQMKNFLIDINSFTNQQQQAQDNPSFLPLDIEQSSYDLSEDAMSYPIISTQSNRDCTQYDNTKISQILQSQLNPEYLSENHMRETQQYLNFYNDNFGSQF
Experiment: PBM E-score (8-mer binding enrichment) (E-score (-0.5 to 0.5)); higher = stronger / more preferred TF binding; most listed sequences are background and not binding sites
Conditions: protein concentration: 200 nM; construct: GST-full length
How it was run: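 For each ungapped eight-base word taken together with its reverse complement, the Universal PBM Analysis Suite assigned an E-score. Binding data came from GST-tagged yeast transcription factors, applied at about 100-200 nM, on universal all-10-mer Agilent arrays made double-stranded by primer extension. Fluorescent anti-GST marked bound protein, and scans were normalised with masliner.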

Compared with ATCCGGGC, AATCCCCG is higher in “PBM E-score” value: -0.258 for the first, -0.187 for the second.

Compared with GTTCGATA, TAAGTCGA is lower in “PBM E-score” value: 0.0816 for the first, -0.123 for the second.

Going from AGGCCCCC to GTTCTCGA, the “PBM E-score” value rises from -0.448 to -0.0119.

Going from AGGACGTG to AATTAATT, the “PBM E-score” value rises from -0.0256 to 0.0367.

First: CTAGTGTC
Second: AATGCGTA
The “PBM E-score” value of the first is lower: -0.162 for the first, 0.0424 for the second.

Going from GTGCGTGA to ACTCTTTA, the “PBM E-score” value falls from 0.123 to -0.0603.

First: CAAGGCTA
Second: ACATCCTA
The “PBM E-score” value of the first is higher: 0.275 for the first, -0.0487 for the second.

First: AGCGACTA
Second: CTCGCGCC
The “PBM E-score” value of the first is lower: -0.193 for the first, 0.295 for the second.

Going from CTTGCATC to ATGCCGCC, the “PBM E-score” value rises from -0.0708 to 0.386.

First: CTAATAAC
Second: AGTATAGG
The “PBM E-score” value of the first is higher: 0.0233 for the first, -0.0433 for the second.

Going from AAAAGACC to CATGCAAC, the “PBM E-score” value rises from -0.0771 to 0.122.

First: CCAGCGAC
Second: GAACGCAA
The “PBM E-score” value of the first is lower: -0.138 for the first, 0.0984 for the second.

Going from ACGGAAAT to ACTGCGTC, the “PBM E-score” value falls from 0.271 to -0.0165.

Going from ACTCGTTC to ATCGTCGG, the “PBM E-score” value falls from -0.0868 to -0.215.

First: CTTGCGAA
Second: TAGCACCA
The “PBM E-score” value of the first is higher: 0.199 for the first, -0.0587 for the second.

Going from GCGAGTCA to CGCAACTC, the “PBM E-score” value rises from -0.0455 to 0.0991.

Going from ACCCAGGT to AGGTTAGG, the “PBM E-score” value rises from -0.344 to -0.182.

Compared with AACAAAAA, ATACTAGG is lower in “PBM E-score” value: 0.171 for the first, -0.0795 for the second.

Going from AAAAGGTG to ATCACGCG, the “PBM E-score” value rises from -0.042 to 0.211.

Going from AAGGGCCC to CCCCCGAG, the “PBM E-score” value falls from -0.16 to -0.358.

First: AGGCCCGG
Second: AGAAGTTA
The “PBM E-score” value of the first is lower: -0.402 for the first, -0.0113 for the second.

Going from ATCATGGG to AGCGTACA, the “PBM E-score” value falls from -0.172 to -0.198.

Compared with CCCAATCG, ACCAGCGT is lower in “PBM E-score” value: 0.0048 for the first, -0.17 for the second.

Going from CACAAGCA to GGGCAACA, the “PBM E-score” value rises from -0.0847 to 0.0862.

Going from ATTCAAGG to AACTGAGA, the “PBM E-score” value rises from -0.127 to 0.115.

First: GATGATAA
Second: GTAGCACA
The “PBM E-score” value of the first is higher: 0.0557 for the first, -0.0292 for the second.

Going from GAGTGTAC to ACCAATCC, the “PBM E-score” value falls from -0.0451 to -0.0607.

First: CCTTGAAC
Second: GACACTGA
The “PBM E-score” value of the first is lower: -0.0566 for the first, -0.0306 for the second.

First: AAACTGGT
Second: AGCTGGAT
The “PBM E-score” value of the first is higher: -0.0925 for the first, -0.146 for the second.

Going from CTTATACA to CTGATTTA, the “PBM E-score” value falls from 0.182 to 0.137.

First: ACAAGGCC
Second: CTCAAATA
The “PBM E-score” value of the first is lower: -0.026 for the first, 0.176 for the second.

First: GGTAAGAC
Second: GATCATCC
The “PBM E-score” value of the first is higher: -0.108 for the first, -0.201 for the second.

Compared with CCCGCACC, ACAATTAG is higher in “PBM E-score” value: -0.149 for the first, 0.049 for the second.

First: AACCGGAT
Second: ATGTTCCG
The “PBM E-score” value of the first is higher: 0.0305 for the first, -0.00592 for the second.

First: GGGGTTAA
Second: CGGACGGA
The “PBM E-score” value of the first is lower: -0.289 for the first, -0.0178 for the second.

Compared with AGTGACGA, AGAGACAT is lower in “PBM E-score” value: -0.00928 for the first, -0.187 for the second.

First: CACGTCCG
Second: AGAGTTTA
The “PBM E-score” value of the first is lower: -0.0661 for the first, 0.21 for the second.

First: AGGTTTAA
Second: GAGGGAGC
The “PBM E-score” value of the first is higher: -0.0142 for the first, -0.23 for the second.

Compared with CCGGCGAG, AAAACGAG is higher in “PBM E-score” value: 0.0395 for the first, 0.135 for the second.

Going from CGTCAGTA to ACTACAGA, the “PBM E-score” value rises from -0.11 to 0.0159.

Going from ACTGCTTG to ATCCCCTG, the “PBM E-score” value falls from -0.229 to -0.269.

Compared with TGATATAA, TCCTTAGA is lower in “PBM E-score” value: -0.0951 for the first, -0.239 for the second.

Going from AGACCTGA to CACGTCCA, the “PBM E-score” value rises from -0.196 to -0.108.

Reference: the supplement of paper PMC3334620
